Out of some 120,000 compounds screened, about 5,300 (4.4%) were called active. The inconclusive results got no clear call from the source; some entries with a clear call stand among them for comparison. Calls follow the shape of the dose curve; as a rule, active = well fitted inhibition curve with a large enough effect; inconclusive = small, poorly fitted or top-dose-only effect; inactive = no such curve, though single readings can be large or run the other way. Potencies beside an inconclusive call are fits to weak or partial responses and may not hold up.
Test: qHTS Primary assay for Inhibitors of Plasmodium falciparum Dd2 growth in vitro; also: nearly all actives have a fitted effect of over 65% in size;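 as to activity, negative = inhibition: plate controls were DMSO vehicle for no effect and reference drug for full effect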
Conditions: P. falciparum Dd2 growth, SYBR Green, 72 h; activity, negative = inhibition: at 28.9 µM (top of the series) unless noted; series mostly up to 28.9 µM
In short: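 Readout: SYBR Green fluorescence, 485 nm excitation, 535 nm emission, after ~16 h lysis at 37C. Before that, Dd2-infected red cells (2.5% hematocrit) grew 72 h with compound, 29 uM top final concentration.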
Potency is read from the fitted curve at half-maximal effect; tags tell the direction and shape of the fitted curve.

| Compound | Potency | activity, negative = inhibition |
| --- | --- | --- |
| CN(C)[C@@H]1[C@@H](NC(=O)c2cc(=O)n(-c3ccccc3)[nH]2)[C@H]2CCO[C@H]21 | inactive | – |
| CCOC(=O)c1cccc(NC(=O)c2ccc3nc(Cc4ccccc4)oc3c2)c1 | inconclusive: 17.8 µM [inhibitor, single point] | – |
| CC(C)CN(CCNC(=O)CN1C(=O)CSc2ccc(S(=O)(=O)N3CCOCC3)cc21)CC(C)C | inconclusive: 11.2 µM [inhibitor, single point] | – |
| Nc1c(C(=O)c2ccc(F)cc2)sc(Nc2ccccc2F)c1S(=O)(=O)c1ccc(Br)cc1 | active: 11.2 µM | – |
| COc1ccc(Cc2nc3ccc(C(=O)NCc4ccc(OC)cc4OC)cc3o2)cc1 | inconclusive: 4.47 µM [inhibitor, partial curve, poor fit] | – |
| CCN1C(=O)Cc2cc(C(=O)NCc3ccc(F)cc3Cl)ccc21 | inconclusive: 17.8 µM [inhibitor, single point] | – |
| Cc1nc2c(c(-c3ccc(O)cc3)n1)CN(Cc1ccc(C(F)(F)F)cc1)CC2 | inactive | – |
| COc1ccc(OC)c(NC(=O)COc2ccc(-c3nnc4n3CCCC4)cc2)c1 | inconclusive: 3.55 µM [inhibitor, partial curve, poor fit] | – |
| NCc1ccc(-c2cccc(O)c2)cc1 | inconclusive: 2.51 µM [inhibitor, full curve] | – |
| COc1ccc(OC)c(CN2CC[C@@H]3OCC(=O)N(C(C)C)[C@H]3CC2)c1 | inactive | – |
| CCNC(=O)c1cccnc1OC1CCN(C(=O)Cc2cccc(Cl)c2)C1 (stereo not drawn) | inconclusive: 11.2 µM [inhibitor, single point] | – |
| Cc1occc1C(=O)N1CCCC(O)(CNC(=O)N2CCOCC2)CC1 (stereo not drawn) | inactive | – |
| COc1ccc(-c2ccnc3nc(C4CCC4)nn23)cc1OC | inconclusive: 11.2 µM [inhibitor, single point] | – |
| Cc1ccc2c(C(=O)NCc3ccc(F)c(Cl)c3)cc(NC(=O)C(C)C)cc2n1 | inconclusive: 15.8 µM [inhibitor, partial curve, poor fit] | – |
| CC(C)c1ccc(NC(=O)c2ccc(F)c(S(=O)(=O)N3CCCCCC3)c2)cc1 | inactive | – |
| Cc1ccc(NC(=O)c2cc(-c3ccc[nH]3)n[nH]2)cc1F | inactive | – |
| CCn1cc(-c2ccc(OC)cc2)cc1C(=O)NCCN1CCN(C)CC1 | inactive | – |
| CN(C)S(=O)(=O)N1CCc2nc3cc(-c4ccccc4)[nH]n3c(=O)c2C1 | – | inactive: -20.7% [at 5.79 µM] |
| COc1ccc(OC2CN(Cc3cccnc3)C2)cc1 | inconclusive: 22.4 µM [inhibitor, single point] | – |
| N#Cc1ccc(CN2CCC3(CC2)CN(c2ccncn2)CC3CO)cc1 (stereo not drawn) | inactive | – |
| Cc1csc(Nc2ccc3c(n2)CN(CCOc2ccccc2)C(=O)CO3)n1 | inconclusive: 0.224 µM [inhibitor, partial curve, poor fit] | – |
| COc1ccc(-c2cc3c(ccn3C(C)C)c(C(=O)NCc3c(C)cc(C)[nH]c3=O)n2)cc1 | inconclusive: 3.16 µM [inhibitor, full curve, poor fit] | – |
| COc1ccc(-c2cc3c(=O)n(CCNC(=O)c4ccc(OC)cc4OC)ccn3n2)cc1 | inconclusive: 0.355 µM [inhibitor, full curve, poor fit] | – |

| Compound | Potency | activity, negative = inhibition |
| --- | --- | --- |
| CCn1cc(-c2cc(C(=O)N3CCCCCC3)c3cccc(C)c3n2)cn1 | inconclusive: 15.8 µM [inhibitor, single point] | – |
| Cc1cc2nc3n(c(=O)c2n1CC(=O)Nc1ccccc1)CCCCC3 | inactive | – |
| Cc1ccc(C)c(NC(=O)CSc2nc(-c3ccccc3)cc(=O)[nH]2)c1 | inactive | – |
| Cc1nc(-c2cccs2)cc([C@H]2CN3CC[C@H]2C[C@@H]3CNC(=O)Nc2cccc(C(F)(F)F)c2)n1 | active: 8.91 µM | – |
| O=C1C(Nc2ccccc2)=CC(c2ccc(Br)cc2)N1c1ccccc1 (stereo not drawn) | inconclusive: 11.2 µM [inhibitor, single point] | – |
| O=C1Nc2ccccc2CC12CN(Cc1c[nH]c3ccccc13)C2 | inconclusive: 7.94 µM [inhibitor, partial curve] | – |
| CN(Cc1cccnc1)c1nc2c(c(=O)[nH]1)CCN(Cc1ccccc1Cl)CC2 | inconclusive: 0.562 µM [inhibitor, partial curve, poor fit] | – |
| CCc1ccc(-n2c(=O)c3c4c(sc3n(Cc3ccc(C)cc3)c2=O)CCC4)cc1 | inactive | – |
| CCn1nccc1C(=O)N1CCC2(CC1)CCC(O)(CN(C)C)CC2 | inactive | – |
| C[C@@H]1C(=O)O[C@H]2[C@H]1CC[C@@]1(C)Cc3sc(NC(=O)COc4ccccc4)nc3[C@@H](C)[C@H]21 | active: 7.08 µM | – |
| COc1ccc(Cl)cc1NC(=O)N1CCCC(Cn2cnc3cccnc32)C1 (stereo not drawn) | inconclusive: 2.82 µM [inhibitor, single point] | – |
| S=C(NC1CCCCC1)N[C@H]1CO[C@H]2[C@@H]1OC[C@@H]2n1cc(-c2ccccn2)nn1 | inconclusive: 31.6 µM [inhibitor, single point] | – |
| CCn1ncc(N2CCC(NC(=O)Cc3ccsc3)CC2)cc1=O | inactive | – |
| O=C(Nc1ccncn1)[C@@H]1C[C@@H](c2cccc(C(F)(F)F)c2)N(CC2CCOCC2)C1 | inconclusive: 5.62 µM [inhibitor, single point] | – |
| COc1ccc(C)cc1NC(=O)NCc1cccn1Cc1ccccc1 | inconclusive: 12.6 µM [inhibitor, partial curve] | – |
| CCN1C(=O)C2(CCN(S(=O)(=O)c3cc(F)ccc3C)CC2)c2ccccc21 | inconclusive: 2 µM [inhibitor, full curve, poor fit] | – |
| Cc1ccc(CN2CCC(CNC(=O)Nc3cccc(Cl)c3C)C2)cc1 (stereo not drawn) | inconclusive: 11.2 µM [inhibitor, single point] | – |
| O=C(NCc1ccccc1)c1ccc2nc(CCc3ccccc3)oc2c1 | inactive | – |
| COc1ccc(N2CCN(C(CNC(=O)C(=O)NCCc3ccccc3)c3cccnc3)CC2)cc1 (stereo not drawn) | inconclusive: 17.8 µM [inhibitor, single point] | – |
| Cn1ncc(N2CCCC(CC(=O)Nc3ccc(Cl)cc3)C2)cc1=O (stereo not drawn) | inconclusive: 17.8 µM [inhibitor, single point] | – |
| CC(=O)N1CCN(c2ccc(C=O)cc2)C(=O)C1 | inconclusive: 11.2 µM [inhibitor, single point] | – |
| CCc1cccc(NC(=O)C(Cc2ccccc2)NS(=O)(=O)c2ccc3c(c2)oc(=O)n3C)c1 (stereo not drawn) | inconclusive: 0.01 µM [inhibitor, full curve, poor fit] | – |
| Cc1nc2c(c(-c3ccc(O)cc3)n1)CN(Cc1ccccn1)CCC2 | inactive | – |

| Compound | Potency | activity, negative = inhibition |
| --- | --- | --- |
| COc1ccc(-c2cc(N3CCCN(C(=O)c4ccc(C)s4)CC3)n[nH]2)cc1 | inactive | – |
| CS(=O)(=O)N1CC2(CCN(Cc3c[nH]c4ccccc34)C2)Cc2ccccc21 (stereo not drawn) | inconclusive: 5.01 µM [inhibitor, partial curve] | – |
| COc1ccc(N2CCN(c3nc(C(=O)NCc4ccc(F)cc4F)cs3)CC2)cc1 | inconclusive: 5.01 µM [inhibitor, partial curve, poor fit] | – |
| Cc1cccc(Cn2c(=O)n(CC3CCC(C(=O)N4CCOCC4)CC3)c(=O)c3sccc32)c1 (stereo not drawn) | inconclusive: 10 µM [inhibitor, single point] | – |
| CCOC(=O)c1ccc(NC(=O)c2oc(=O)c3ccccc3c2-c2ccccc2)cc1 | inactive | – |
| CN1CCc2c([nH]c3ccccc23)C12CCN(C(=O)c1ccc(Cn3ccnc3)o1)CC2 | inconclusive: 2.51 µM [inhibitor, partial curve, poor fit] | – |
| CC1=C(C(=O)OCC2CCCCC2)C(c2cccc(Cl)c2Cl)CC(=O)N1 (stereo not drawn) | inactive | – |
| COc1cc(OC)cc(C(=O)N2CCC(n3cc(-c4nc(C)no4)nn3)C2)c1 (stereo not drawn) | inactive | – |
| Cn1c([C@H]2CCN(S(=O)(=O)c3ccc(F)cc3)C2)nc2ccccc21 | inactive | – |
| O=C(Cc1c[nH]c2ccccc12)NC1CCCc2c1[nH]c1ccc(F)cc21 (stereo not drawn) | active: 12.6 µM | – |
| CCc1ccc(Cn2c(CNS(=O)(=O)c3ccc(F)c(Cl)c3)nc3cccnc32)cc1 | inconclusive: 10 µM [inhibitor, single point] | – |
| O=C(CC1CCCCC1)N1CC2CC(C1)[C@H]1CCCC(=O)N1C2 (stereo partly drawn) | inactive | – |
| Cc1cc(S(=O)(=O)N[C@@H]2CCOC[C@H]2Oc2ccccn2)c(C)s1 | inactive | – |
| COc1ccc(N2CC3CCC(C2)N3Cc2cccc(-c3cccnc3)c2)cc1 | active: 11.2 µM | – |
| CCN1c2cc(C(=O)NCc3cccc(OC)c3)ccc2C(=O)N2CCCCCC21 (stereo not drawn) | inconclusive: 7.94 µM [inhibitor, partial curve, poor fit] | – |
| Cc1cc2oc(C(=O)N(Cc3ccccc3F)C3CCS(=O)(=O)C3)c(C)c2cc1Cl (stereo not drawn) | inconclusive: 20 µM [inhibitor, single point] | – |
| CCOc1ccc(-c2cc(C(=O)N3CCN(S(=O)(=O)c4cc(Cl)ccc4OC)CC3)[nH]n2)cc1 | inactive | – |
| Cc1nn(C(=O)c2ccccc2F)c(C)c1S(=O)(=O)N1CCCCCC1 | inactive | – |
| CCCCCSc1nc2sc3c(c2c(=O)n1-c1ccccc1)CCN(C(C)=O)C3 | inconclusive: 1.12 µM [inhibitor, single point] | – |
| COc1ccc(-c2oc3ncn4nc(COc5c(C)cccc5C)nc4c3c2-c2ccc(OC)cc2)cc1 | active: 11.2 µM | – |
| COCC1CN(Cc2cnn(C(C)C)c2)CC12CCNCC2 (stereo not drawn) | inconclusive: 1.12 µM [inhibitor, partial curve, poor fit] | – |
| CCOc1ccccc1NC(=O)N1CCc2cc(S(=O)(=O)N3CCC(C)CC3)ccc21 | inconclusive: 0.708 µM [inhibitor, partial curve, poor fit] | – |

From PubChem BioAssay AID1347417 (National Center for Advancing Translational Sciences (NCATS), 2020)
